Assay results from the supplement of paper PMC3334620.
The full ranking holds about 33,000 sequences; the median of “E-score (-0.5 to 0.5)” is about -0.056, and the highest 2% start at about 0.38. Some of the results follow.

Molecular target: Stb4 (UniProt P50104)
Assay: PBM E-score (8-mer binding enrichment) (E-score (-0.5 to 0.5)); higher = stronger / more preferred TF binding; most listed sequences are background and not binding sites
Settings: protein concentration: 200 nM; construct: GST-DNA-binding domain
How it was run: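 Yeast transcription factors carrying a GST tag, as full-length proteins or DNA-binding domains, were produced by PURExpress in vitro transcription/translation. About 100-200 nM protein was applied to universal all-10-mer Agilent arrays, double-stranded by primer extension on fresh or once-stripped slides. Bound protein was detected with fluorescent anti-GST, and scans were normalised with masliner. The Universal PBM Analysis Suite gave each ungapped eight-base word, pooled with its reverse complement, an E-score, a modified Wilcoxon-Mann-Whitney statistic.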

| Sequence | PBM E-score |
| --- | --- |
| AATGTTCG | 0.14 |
| CCAGGCCA | -0.175 |
| CCGTCCCC | 0.176 |
| ATACTTTA | -0.135 |
| ATCTCTAG | -0.137 |
| CTGCATAC | -0.0132 |
| CGGTACCC | 0.259 |
| CCCAGCAG | -0.0831 |
| AACTGGCA | -0.0695 |
| CCGCATGC | 0.167 |
| AACTCAAT | -0.00367 |
| GCGAATAC | -0.125 |
| AACAATGG | -0.189 |
| CAGGACCG | -0.049 |
| CTACAGGA | -0.2 |
| CGGGCTCC | 0.1 |
| AAATGATC | 0.0559 |
| CTTATCAC | -0.277 |
| GGATGCGA | -0.00382 |
| ACCCTATA | -0.346 |
| ATTCCATC | 0.0842 |
| AGGAAACT | -0.0937 |

| Sequence | PBM E-score |
| --- | --- |
| CGGGCGGA | 0.348 |
| AAAGATAA | -0.0473 |
| GGCCTTAC | -0.0692 |
| CTCACGTC | 0.0256 |
| GAAACGAA | 0.0595 |
| AAAATATG | -0.0124 |
| CGGGACTA | 0.274 |
| CCCAATTA | -0.141 |
| GAAGTGAC | 0.138 |
| CCACATGA | -0.194 |
| CGAAGGGC | 0.0578 |
| CGTGTGTC | 0.0273 |
| ATGCTTCG | 0.178 |
| ACGTTTAG | -0.278 |
| GCCAATTA | -0.0619 |
| ACAGGATC | -0.176 |
| GGGCTTCA | -0.0795 |
| CAAACGCG | 0.0177 |
| ATAGTCAG | -0.206 |
| AACGCGAC | -0.151 |
| ATTACCTC | 0.0335 |
| GCGTTAGA | -0.031 |

| Sequence | PBM E-score |
| --- | --- |
| AATTAACG | 0.0149 |
| ATGCAAAG | -0.0375 |
| CGACCTCG | -0.0175 |
| ACAATAAT | 0.00727 |
| ACTGAAGC | -0.188 |
| CACTCCTG | -0.189 |
| TCACGAGA | -0.256 |
| GCACCAGA | -0.165 |
| CCGCTTTC | 0.186 |
| AGCCGCAA | 0.0737 |
| ACCCGGAA | 0.433 |
| CAAAATTC | 0.165 |
| CTGAAGGC | -0.204 |
| TATTTAGA | -0.129 |
| GTCTAGAA | 0.0687 |
| CATCCCCG | 0.259 |
| ATGATAGC | 0.0247 |
| AAGAATTA | -0.0143 |
| GAAAGTCA | -0.00187 |
| AAAGCCCA | -0.0753 |
| AATGCACT | -0.242 |
| CCATTGTA | -0.11 |

| Sequence | PBM E-score |
| --- | --- |
| TACAAGCA | -0.0326 |
| TGCCGACA | 0.359 |
| ACGTATAT | -0.238 |
| CCCGAAAC | 0.339 |
| ATCTGGTC | -0.16 |
| GACAAACA | -0.021 |
| TGATGCAA | -0.0757 |
| GGAAAGAA | 0.171 |
| ATGGTATA | -0.256 |
| TGGCGCCA | -0.353 |
| ACTGGGTC | -0.221 |
| CCTGGGAC | -0.354 |
| CGGGGTCA | 0.229 |
| TGCGCCAA | -0.0992 |
| AACCTCTG | -0.148 |
| CCCTCCCA | 0.051 |
| AACAAGTA | -0.28 |
| GCTTACGA | -0.323 |
| GTAATAGA | -0.0589 |
| ATTCTAAC | -0.16 |
| CGTCTCAA | 0.00967 |
| AAAGAAAA | 0.151 |

| Sequence | PBM E-score |
| --- | --- |
| CCCCTTAC | -0.128 |
| AATTTACA | -0.159 |
| AGTATACG | -0.129 |
| ATAACATC | 0.0801 |
| CAATAGCA | -0.131 |
| ACTACGCC | -0.177 |
| CACTCCAA | -0.0407 |
| ATAGCTCC | 0.0352 |
| CAAAAGTC | -0.125 |
| ATGGGAAA | -0.0912 |
| GTGTCTTA | -0.108 |
| ACCATAGT | 0.117 |
| GCTATACA | -0.182 |
| GTAAACAA | 0.0419 |
| CGCCATCC | 0.0474 |
| AAGATCCA | -0.0259 |
| CTTTCTTA | -0.246 |
| GTTCAATA | -0.138 |
| CTTCCGGA | 0.396 |
| GCGTAATA | -0.0928 |
| AGTACGCG | 0.00259 |
